Measured values published in PMC4336329 (PLoS ONE, 2015).
Screen size: about 310,000 compounds; about 2,200 (0.71%) showed an effect of 50% or more. The effect is printed as a negative number. The list shows a part of the results.

target: human ether-à-go-go-related gene (hERG) potassium channel (human, UniProt Q12809); test: primary screen, population patch clamp on CHO cells stably expressing hERG
Sequence (Q12809 whole entry, looked up): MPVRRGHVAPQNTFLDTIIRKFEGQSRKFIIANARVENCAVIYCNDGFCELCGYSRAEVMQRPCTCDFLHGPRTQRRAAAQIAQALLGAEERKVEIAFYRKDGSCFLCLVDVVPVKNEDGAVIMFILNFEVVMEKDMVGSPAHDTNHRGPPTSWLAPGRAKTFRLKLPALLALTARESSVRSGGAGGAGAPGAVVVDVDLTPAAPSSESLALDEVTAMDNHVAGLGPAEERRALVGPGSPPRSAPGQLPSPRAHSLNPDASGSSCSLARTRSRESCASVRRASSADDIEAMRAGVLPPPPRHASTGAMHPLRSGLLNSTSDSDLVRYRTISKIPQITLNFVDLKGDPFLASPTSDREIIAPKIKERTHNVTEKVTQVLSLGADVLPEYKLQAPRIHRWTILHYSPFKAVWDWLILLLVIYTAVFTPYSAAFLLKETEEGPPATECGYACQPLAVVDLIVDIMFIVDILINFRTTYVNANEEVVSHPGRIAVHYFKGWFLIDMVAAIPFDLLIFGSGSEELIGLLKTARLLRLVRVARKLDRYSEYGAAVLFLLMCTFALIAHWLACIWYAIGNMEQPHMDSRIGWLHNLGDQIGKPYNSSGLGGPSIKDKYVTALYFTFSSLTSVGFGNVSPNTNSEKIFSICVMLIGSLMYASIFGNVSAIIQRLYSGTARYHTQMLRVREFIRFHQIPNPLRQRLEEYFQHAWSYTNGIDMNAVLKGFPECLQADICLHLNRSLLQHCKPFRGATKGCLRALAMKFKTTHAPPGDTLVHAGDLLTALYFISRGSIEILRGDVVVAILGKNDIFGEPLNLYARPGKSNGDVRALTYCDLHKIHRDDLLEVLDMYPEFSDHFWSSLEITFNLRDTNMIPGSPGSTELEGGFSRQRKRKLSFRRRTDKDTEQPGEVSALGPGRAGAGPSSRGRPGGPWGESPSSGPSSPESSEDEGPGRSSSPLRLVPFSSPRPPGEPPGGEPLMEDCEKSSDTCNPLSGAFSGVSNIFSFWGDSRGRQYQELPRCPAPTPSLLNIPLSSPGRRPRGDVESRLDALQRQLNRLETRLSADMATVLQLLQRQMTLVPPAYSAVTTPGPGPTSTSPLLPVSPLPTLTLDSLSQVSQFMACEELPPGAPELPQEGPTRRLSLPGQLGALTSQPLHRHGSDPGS

SMILES	hERG current change (%, negative = inhibition) at 1uM [%]
CCCCC1(Cc2ccc([N+](=O)[O-])cc2)C(=O)N(c2ccccc2)N(c2ccccc2)C1=O	8.69
CCCCN(C)C(=O)CS(=O)(=O)Cc1nc(-c2cccc(OC)c2)oc1C	-1.55
CN1CCN(CC(O)COc2ccccc2)CC1 (centres unmarked)	0.443
CCCn1c(N)c(N(CCOC)C(=O)c2cccc(Cl)c2)c(=O)[nH]c1=O	30.3
CCCC(=O)NC1CCCc2c1cnn2-c1ccc(C)c(C)c1 (centres unmarked)	-21
O=S1(=O)CC(O)C(Nc2ccccc2Cl)C1 (centres unmarked)	-6.4
Cc1ccc(NC(=O)Cn2c(=O)cnc3ccccc32)cc1S(=O)(=O)N1CCOCC1	3.77
O=C(CCCc1nc(-c2ccccc2Cl)no1)NC1CCCCC1	11.9
O=C(COc1cccc(Cl)c1)NNC(=S)Nc1ccccc1	10.1
CCOC(=O)c1ccc(-c2cc(C)no2)[nH]1	8.66
Cc1ccccc1CC1(CO)CCCN(Cc2ccn[nH]2)C1 (centres unmarked)	8.62
Cn1c(=O)c2c(nc(N3CCCCCC3)n2Cc2cccc3ccccc23)n(C)c1=O	17.1
O=C(NCCCn1ccnc1)c1cc2cc([N+](=O)[O-])ccc2oc1=O	-14.2
CCn1c(=O)c(=O)n(CC)c2cc(S(=O)(=O)Nc3cccc(OC)c3)ccc21	12
C=CCNC(=S)N/N=C/c1ccc(C)c([N+](=O)[O-])c1	13.5
N#CC1(NC(=O)CSc2nc3ccc([N+](=O)[O-])cc3s2)CCCCC1	-18.4
c1ccc(C2(Cn3ccc4ccccc43)OCCO2)cc1	8.29
COc1ccc(CCNCc2sccc2C)cc1.Cl	3.21
CCC(C)NC(=O)CS(=O)Cc1nc(-c2cccc(C)c2)oc1C (centres unmarked)	14.8

SMILES	hERG current change (%, negative = inhibition) at 1uM [%]
CCC(C(=O)Nc1ccc(C)cc1)c1ccccc1 (centres unmarked)	7.21
[2H]C([2H])(CCOS(N)(=O)=O)c1ccccc1	4.94
CCOC(=O)C1CCCN(C(=O)c2ccc([N+](=O)[O-])c(C)c2)C1 (centres unmarked)	-0.659
Cc1cc(C(C)(C)C)ccc1OCC(=O)N/N=C\c1c(C)n(C)n(-c2ccccc2)c1=O	-12.5
Cn1nc(C(=O)NCc2ccccc2)cc1C(=O)NCc1ccccc1	16.9
COCCN(CCOC)C(=O)COC(=O)c1ccc(Cl)c(S(=O)(=O)N(C)c2ccccc2)c1	5.09
COc1ccc(NC(=O)CSCC(=O)N2CCN(c3cccc(C(F)(F)F)c3)CC2)cc1	3.36
CCCCC1=CC2=C(c3ccco3)C(=O)C(C)(OC(=O)c3ccc(OC)cc3)C(=O)C2=CN1CC(C)C (centres unmarked)	13.7
COc1cc(NC(=O)[C@H](C)NC(=O)N2CCn3c2nc2ccccc23)cc(OC)c1	2.53
CCCSc1ccc([C@H]2N[C@@](C)(C(=O)OC)[C@H]3C(=O)N(C)C(=O)[C@@H]23)cc1OC.O=C(O)C(F)(F)F	7.32
CCCCCn1c(=O)[nH]c2cc(C(=O)N3CCN(Cc4ccc5c(c4)OCO5)CC3)ccc2c1=O	8.6
Cc1ccc(S(=O)(=O)N2CCN(C(=O)N(C)C)CC2)cc1	19.9
CN(CC(=O)Nc1ccc(F)c(F)c1F)C(=O)c1ccc2c(c1)OCCO2	8.45
COc1ccc(CNC(=O)CCn2c(=O)oc3ccccc32)cc1	12.2
COc1cccc(C(=O)NC(=S)Nc2ccc(N(C)C)cc2)c1	8.65
NC(=O)Cn1c2[n+](c3ccccc31)CC(O)CS2.[Br-] (centres unmarked)	15.6
CC(C)CC1NC2(C(=O)N(C)c3ccccc32)C2C(=O)N(C(C)C)C(=O)C12 (centres unmarked)	7.02
Cc1ccc([C@@H]2C[C@H]3CN(Cc4cccc(Cl)c4)C(=O)[C@]34CCCN24)o1	-0.451
COc1cc(N(C)C)c(NC(C)=O)cc1C(=O)O	20.6

SMILES	hERG current change (%, negative = inhibition) at 1uM [%]
O=[N+]([O-])c1ccc(N2CCN(C(=S)Nc3cccc(F)c3)CC2)cc1	-26.9
COc1ccc(-c2cc(C(=O)N3CCOCC3)no2)cc1OC	-2.34
O=C(COC(=O)CNC(=O)c1ccccc1)Nc1ccccc1Cl	11.4
CCC(=O)N1CCc2cc(Br)cc(S(=O)(=O)NCc3ccco3)c21	-2.36
COc1ccc(NC(=O)c2cccc(S(=O)(=O)Nc3ccc(Br)cc3)c2)cn1	11.3
O=C(COc1ccc(Cl)cc1)NCc1nnc2c3ccccc3c(-c3ccccc3)nn12	-2.65
Cn1c(=O)c2c(nc(Br)n2CCCc2ccccc2)n(C)c1=O	6.47
CCOc1ccc(C(=O)N2CCCC(c3nc(-c4cccs4)no3)C2)cc1 (centres unmarked)	9.92
Cc1ccc(Cc2cnc(NC(=O)CN3CCOCC3)s2)cc1Cl	-3.09
Cn1c(N)c(C(=O)COC(=O)CCC2CCCCC2)c(=O)n(C)c1=O	-25.3
Cc1cc(C[n+]2cc(Cl)ccc2N)c2ncccc2c1.[Br-]	-14
COc1ccc(C(C)(C)C)cc1NC(=O)c1ccoc1C	1.62
NS(=O)(=O)c1ccc(NCc2cc(Cl)ccc2OCc2ccc(F)cc2)cc1	10
O=C(CSc1ccc(Cl)cc1)N1CCC(c2nc3ccccc3s2)CC1	-4.9
NC1=NC(=O)/C(=C/c2ccc(Cl)cc2Cl)S1	8.74
CCN1CC(c2ccccc2)C(c2ccc(Cl)cc2)=N1 (centres unmarked)	-5.14
COC(=O)C1=C(C)NC(=O)NC1c1ccc(OC(=O)c2ccco2)cc1 (centres unmarked)	7.7
CC(=O)OC[C@H]1O[C@@H](O/N=C/[C@@H](C)[C@H](OCc2ccccc2)C(C)C)[C@H](OC(C)=O)[C@@H](OC(C)=O)[C@@H]1OC(C)=O	5.94
